# Results from PubChem BioAssay (NCI).
#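 48-hour exposure; five concentrations; linearly interpolated endpoints. GI50 is the concentration that inhibits growth by half. TGI: total growth inhibition.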
# System: NCI-H322M lung
# Test: DTP human tumour cell line panel, 48 h
SMILES,GI50,TGI
COc1cc2nc(Cl)nc(Nc3cccc(C4=Nc5c(N)nc(N)nc5NC(c5ccc(F)cc5)C4)c3)c2cc1OC (stereo unspecified),2.14 µM,5.57 µM
N#Cc1nc(-c2ccccc2)oc1S(=O)(=O)N1CCN(CCc2ccccn2)CC1,23.2 µM,79.2 µM
Nc1ccccc1NC(=O)c1ccc(NC(=O)C/C=C/c2cccnc2)cc1,2.36 µM,> 50 µM
